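All cell lines were grown in 96-well plates and treated with compound for 48 hours. The concentration for 50% growth inhibition is given as GI50. The concentration for full growth arrest is given as TGI.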
The molecules below were run on NCI-H322M lung (assay: DTP human tumour cell line panel, 48 h).
For `COc1ccc2c(c1)c(/C=N/Nc1ccnc3cc(Cl)ccc13)cn2C`, the GI50 was 0.686 µM and the TGI was 1.82 µM. Work on `Cn1ccnc1C(=O)/C=C/C=C/c1ccc(C(=O)Nc2ccc(F)cc2)cc1` yielded a GI50 of 8.14 µM and a TGI greater than 33.3 µM. In the case of `CCNC(=O)N1CCc2cc(OC)c(OCCc3ccc(OC)cc3)cc2C1c1ccc(Cl)cc1C` (stereo not drawn), the GI50 is reported as 2.02 µM and the TGI is reported as greater than 100 µM. With `Clc1ccc2oc3c(NCCCn4ccnc4)c4ccccc4nc3c2c1` the GI50 was 11.3 µM and the TGI was greater than 100 µM.
